According to PubChem BioAssay AID686979 (National Center for Advancing Translational Sciences (NCATS), 2013):
Among all 420,000 compounds or so, about 50,000 (12%) were called active. This list was built around the results that the source calls inconclusive (neither active nor inactive); the mix of calls is not that of the screen. Calls come from the whole dose curve; as a rule, active = well fitted inhibition curve with a large enough effect; inconclusive = small, poorly fitted or top-dose-only effect; inactive = flat fitted curve, though single readings scatter. No potency is given beside an inconclusive call; the fits are too rough.

assay: qHTS for Inhibitors of human tyrosyl-DNA phosphodiesterase 1 (TDP1): qHTS in cells in presence of CPT; settings: chicken DT40 Tdp1-/-;hTDP1 cells + 20 nM CPT, ATP luminescence, 48 h; activity change, negative = growth inhibition: at 46.2 µM (top of the series) unless noted; note: nearly all actives have a fitted effect of over 55% in size
In short: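 Chicken DT40 Tdp1-/- cells complemented with human TDP1, 400 cells/well, exposed to compounds plus 20 nM camptothecin for at least 48 h at 37 C; viability read as ATP content by CellTiter-Glo luminescence.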
% is set by controls: 0 for no effect and ±100 for the full control effect; potency is the fitted concentration of half-maximal effect; tags give direction and shape of the fitted curve.

Structure (SMILES)	Potency	activity change, negative = growth inhibition
O=C(Nc1ccc(N2CCCC2)cc1)C(Cl)c1ccccc1 (stereo not drawn)	active: 8.2 µM	
CC(=O)Nc1ccc(N(C(=O)Cn2nnc3ccccc32)C(C(=O)NCc2ccccc2)c2ccc(C)cc2)cc1 (stereo not drawn)	inconclusive [inhibitor, partial curve]	
Cn1c(=O)c2cc(NC(=S)NC3CC3)ccc2n1Cc1ccc(F)cc1		inconclusive: -30.4% [inhibitor]
COc1ccc(N=CC2CCCCC2=O)c([N+](=O)[O-])c1 (stereo not drawn)	inconclusive [inhibitor, single point]	
Cc1ccc(C(=O)C2CCN(CC(=O)Nc3ccccc3C)CC2)cc1	inconclusive [inhibitor, single point]	
CCc1c(C)nc2[nH]nc(-c3ccccc3)n2c1=O	inconclusive [inhibitor, single point]	
Nc1nc(-c2ccc(Oc3ccccc3)cc2)cs1		inactive: 4.14%
COc1ccc(NC(C)c2ccccc2)cc1 (stereo not drawn)		inactive: 2.44%
O=C(N/N=C/c1ccccc1F)NC1CCCCC1		inactive: -0.545%
CCOC(=O)C1=CCC(c2ccc(F)cc2)N(S(=O)(=O)c2ccc(C)cc2)C1 (stereo not drawn)	active: 16.4 µM	
O=C(CCS(=O)(=O)c1ccccc1Cl)Nc1ccc(S(=O)(=O)Nc2ncccn2)cc1		inactive: -10.7%
O=C1N/C(=N\N=C\c2ccco2)SC1Cc1ccccc1[N+](=O)[O-] (stereo not drawn)	inconclusive [inhibitor, single point]	
C[C@@H](CO)NC(=O)c1nc[nH]c1C(=O)N[C@H](C)c1ccccc1		inactive: 2.46%
COc1ccc2cc(/C=N/NC(=O)c3ccc(CN(c4cccc(Cl)c4Cl)S(C)(=O)=O)cc3)c(Cl)nc2c1	active: 18.4 µM	
COc1ccc(C(=O)NCCNc2nc3cc(C)cc(C)c3cc2C#N)cc1	inconclusive [inhibitor, single point]	
COc1ccc(N(C(=O)c2cccnc2)S(=O)(=O)c2ccc(F)cc2)cc1		inactive: -27.4%
Cc1c(-c2ccccc2)sc2nc[nH]c(=S)c12	inconclusive [inhibitor, single point]	
O=C(COc1ccc(F)cc1)Nc1ccc2c(c1)OCCO2	inconclusive [inhibitor, full curve]	
CN1C(=O)/C(=C/c2ccc3c(c2)OCO3)N=C1c1ccccc1	inconclusive [inhibitor, single point]	
O=C1C(c2ccc(F)cc2)N(CCc2ccccc2)C(=O)CN1C1CCCCCC1 (stereo not drawn)	inconclusive [inhibitor, single point]	
COc1ccc(/C=N/N(C(C)=O)c2nc(-c3ccc(C)cc3)cs2)cc1		inactive: -27%
COc1cc(/C=N/NC(=O)C(=O)/C=C2\NC3(CCCC3)Cc3ccccc32)ccc1O	inconclusive [inhibitor, single point]	
COc1cc(CN2CCC(n3nccc3NC(=O)c3ccccc3OC)CC2)ccc1F	inconclusive [inhibitor, partial curve]	
CCOc1ccc(N2CC(O)=C(c3nc4ccccc4c(=O)[nH]3)C2=N)cc1		inactive: -28.1%

Structure (SMILES)	Potency	activity change, negative = growth inhibition
CCc1ccccc1N1CSC2=C(C#N)C(c3cc(OC)c(OC)cc3OC)CC(=O)N2C1 (stereo not drawn)	inconclusive [inhibitor, single point]	
CCC(CC)CN1C(Nc2ccccc2)=NC[C@@H]1CC(C)C	inconclusive [inhibitor, single point]	
COc1ccc(C)cc1N(C)C(=O)CCc1nc(-c2ccccc2F)no1	active: 18.4 µM	
CCN1CCN(CC(=O)N/N=C/c2ccc(F)cc2F)CC1		inactive: 5.53%
COc1ccc(C)cc1S(=O)(=O)Nc1ccc2c(c1)N(C(C)=O)CCC2	active: 25.9 µM	
O=C(c1cccs1)N1CCN(Cc2nc(-c3ccccc3)no2)CC1	inconclusive [inhibitor, single point]	
CC(C)(C)c1ccc(N/N=C(\C#N)S(=O)(=O)C(C)(C)C)cc1	active: 4.61 µM	
COc1cc(C)c(CN2CCN(C(=O)CCC(=O)c3ccc(C)s3)CC2)cc1OC	inconclusive [inhibitor, single point]	
Cc1cccc(S(=O)(=O)c2c(N)n(Cc3ccco3)c3nc4ccccc4nc23)c1	inconclusive [inhibitor, single point]	
Cc1cc(NC(=O)CN2CCC(C)CC2)nc2c1c(=O)oc1ccccc12	inconclusive [inhibitor, single point]	
CCOC(=O)C(Cc1c[nH]c2ccccc12)NC(=O)COc1ccc(CC)cc1 (stereo not drawn)	inconclusive [inhibitor, single point]	
CCOC(=O)c1ccccc1N=N/C(C(C)=O)=C(/C)O		inconclusive: -30.4% [inhibitor]
COc1cccc(OCc2cc(C(=O)NCC3CCCCC3)no2)c1		inactive: -6.66%
CCCCNC(=O)/C(C#N)=C/c1ccc2c(c1)OCCO2	inconclusive [inhibitor, single point]	
Cc1nnsc1NC(=O)OCC(C)C	inconclusive [inhibitor, partial curve]	
C=C(C)C1CCC(C)=C1COC(=O)Nc1ccccc1 (stereo not drawn)	inconclusive [inhibitor, single point]	
O=C(O)C1CCCN(C(=O)NCc2ccccc2)C1 (stereo not drawn)		inactive: -10.6%
CCC(Oc1ccccc1)C(=O)Nc1ccc(S(=O)(=O)Nc2cc(C)on2)cc1 (stereo not drawn)		inactive: -9.35%
O=C(c1cccc(C(F)(F)F)c1)N1CCC(O)(CS(=O)(=O)Cc2ccccc2Cl)CC1	inconclusive [inhibitor, single point]	
CN(C)c1ccc(Nc2ncnc3sc4c(c23)CCCC4)cc1	inconclusive [inhibitor, single point]	
CCc1nc2ccc(C(=O)Nc3cccc(NS(C)(=O)=O)c3)cn2c1N(CC)CCOC	inconclusive [inhibitor, partial curve, poor fit]	
Cc1ccc2cc(CCNS(=O)(=O)c3ccc(Cl)cc3)c(=O)[nH]c2c1C	active: 20.6 µM	
O=C(/C=C/c1ccc(Cl)cc1Cl)c1cccnc1	inconclusive [inhibitor, single point]	
Cc1cc(=O)[nH]c2c(N=Nc3ccc(O)cc3)c(N)nn12	inconclusive [inhibitor, single point]	

Structure (SMILES)	Potency	activity change, negative = growth inhibition
CC(C)(C)NNC(=S)Nc1cccc(F)c1	inconclusive [inhibitor, single point]	
COc1ccc(-n2c(-c3ccc(Br)cc3)c[n+]3c2CCc2ccccc2-3)cc1	active: 1.64 µM	
CC1=CC(C)(C)N(C(=O)CSc2nnc(N)s2)c2ccccc21		inactive: -21.4%
COc1cccc(N2CCN(S(=O)(=O)c3cc(-c4cc(C)no4)ccc3C)CC2)c1	inconclusive [inhibitor, partial curve]	
C(=N\Nc1ccc(-n2ccnc2)nn1)/c1ccccc1	inconclusive [inhibitor, partial curve, poor fit]	
Cc1ccc(-c2nn(-c3ccccc3Cl)cc2C(=O)NCC2CCCO2)cc1 (stereo not drawn)	inconclusive [inhibitor, single point]	
CC(C)COc1ccc(C(=O)Nc2cc(-c3ccccc3)no2)cc1	inconclusive [inhibitor, partial curve]	
CCc1cccc2c(C#N)cn(CCOc3ccccc3OC)c12	inconclusive [inhibitor, single point]	
Cc1cc2c(SCC(=O)N3CCN(c4ccccc4)CC3)ncnc2s1	inconclusive [inhibitor, single point]	
O=C(COc1cccc2c1CCN(Cc1ccc(Br)cc1)C2=O)NCc1ccco1	active: 18.4 µM	
COc1ccccc1NC(=O)NCCC1=CCCCC1	inconclusive [inhibitor, single point]	
CCOc1cc(N2CCOCC2)c(OCC)cc1NC(=O)c1ccc(NC(C)=O)cc1		inactive: -13.5%
CCOC(=O)C1CCN(c2ncnc3c2cnn3-c2ccc(Cl)cc2)CC1	inconclusive [inhibitor, single point]	
O=c1c2cn[nH]c2nc(SCc2c(F)cccc2F)n1-c1ccc(Cl)cc1	inconclusive [inhibitor, single point]	inconclusive: -30.5% [inhibitor]
COc1ccc(CC(=O)NCc2nnc(SCC(=O)Nc3ccccc3)n2C)cc1		inactive: -5.11%
CCOc1ccc(-n2c(CCc3ccccc3)n[nH]c2=S)cc1	inconclusive [inhibitor, single point]	
CCOc1ccccc1OCC(=O)NCCc1ccc(S(N)(=O)=O)cc1		inactive: -0.525%
COCCCNC(=S)N1CCCN(c2nc3cc(C)ccc3cc2C#N)CC1	inconclusive [inhibitor, single point]	
N#Cc1cc2c(nc1SCc1cccnc1)CCC2	inconclusive [inhibitor, single point]	
O=C(CSc1ccc(C(F)(F)F)cc1[N+](=O)[O-])Nc1ccc2ccccc2c1	inconclusive [inhibitor, partial curve, poor fit]	
CSCCC(NS(=O)(=O)c1ccccc1F)C(=O)N1CCCCCCC1 (stereo not drawn)	inconclusive [inhibitor, partial curve]	
O=C(c1ccco1)N1CCN(C(=O)C(Sc2ccccc2)c2ccccc2)CC1 (stereo not drawn)	active: 16.4 µM	
CCCN1C(=O)c2ccc(C(=O)NC3CCCCC3)cc2C1=O		inactive: 0.92%
CSc1cc(-c2ccc(Cl)cc2)n(Cc2ccccc2)c(=O)c1C#N	inconclusive [inhibitor, single point]	
